According to PubChem BioAssay (NCATS):
Values joined by “and” are separate entries in the source; they are usually repeats but may differ in a detail not shown here. Equal values may be shown once. The inconclusive results got no clear call from the source; some entries with a clear call stand among them for comparison. Where the call is inconclusive, the potency comes from a doubtful curve fit. Active and inactive are the calls of the source. Calls follow the shape of the dose curve; as a rule, active = well fitted inhibition curve with a large enough effect; inconclusive = small, poorly fitted or top-dose-only effect; inactive = flat fitted curve, though single readings scatter.

Experiment: Primary qHTS for inhibitors of nuclear receptor binding SET domain protein 2 (NSD2) in an isogenic RCH-ACV NSD2 p.E1099K mutant (9B) (AID 1645876); also: nearly all actives have a fitted effect of over 70% in size
Conditions: RCH-ACV (leukaemia line) NSD2 E1099K (9B) viability, CellTiter-Glo, 72 h; series mostly up to 44.9 µM
Potency is read from the fitted curve at half-maximal effect; tags tell the direction and shape of the fitted curve.

Question: With `ClC1=C(Cl)[C@]2(Cl)[C@@H]3[C@@H]4C[C@@H]([C@H]5O[C@@H]45)[C@@H]3[C@@]1(Cl)C2(Cl)Cl` as the compound, how does the Potency read?
Answer: Its Potency is inconclusive: 54.5 µM [inhibitor, single point].

Question: Which Potency does the source give for `CCN(CC)C(=O)c1ccc(C2=CC3(CCNCC3)Oc3cccc(O)c32)cc1` here?
Answer: Its Potency is inconclusive: 9.34 µM [inhibitor, full curve, poor fit].

Question: For `CCOP(=O)(NC(C)C)Oc1ccc(SC)c(C)c1` (centres undefined), which Potency is on record?
Answer: The Potency was inconclusive: 68.6 µM [inhibitor, partial curve, poor fit].

Question: With `O=C(N[C@H]1CN2CCC1CC2)c1cc2cccc(Cl)c2s1` as the compound, how does the Potency read?
Answer: Its Potency is inconclusive: 23 µM [inhibitor, single point].

Question: With `CNC(C)Cc1ccc2c(c1)OCO2` (centres undefined) as the compound, how does the Potency read?
Answer: Its Potency is inconclusive: 84.2 µM [inhibitor, single point].

Question: For `Nc1ccc(Cl)cc1N`, which Potency is on record?
Answer: The Potency was inconclusive: 68.6 µM [inhibitor, single point].

Question: For `CCC(C)C1NC(=O)C(C(C)=O)=C1O` (centres undefined), which Potency is on record?
Answer: Its Potency is inconclusive: 41.9 µM [inhibitor, single point].

Question: Which Potency does the source give for `Nc1ccccc1C(=O)O` here?
Answer: The Potency was inconclusive: 26.6 µM [inhibitor, single point].

Question: For `O=C1CN=C(c2ccccc2)c2cc([N+](=O)[O-])ccc2N1`, which Potency is on record?
Answer: The Potency was “inactive”.

Question: With `CC(C)CC(N(C)C)C1(c2ccc(Cl)cc2)CCC1` (centres undefined) as the compound, how does the Potency read?
Answer: Its Potency is inconclusive: 29.9 µM [inhibitor, single point].

Question: With `Oc1ccc([C@H]2CNCc3c2ccc(O)c3O)cc1O` as the compound, how does the Potency read?
Answer: Its Potency is inconclusive: 29.9 µM [inhibitor, single point].

Question: For `CNC(=O)Oc1cccc2ccccc12`, which Potency is on record?
Answer: The Potency was inconclusive: 7.5 µM [inhibitor, partial curve].

Question: With `CCC(=O)C(CCN(C)C)(c1ccccc1)c1ccccc1` as the compound, how does the Potency read?
Answer: Its Potency is inconclusive: 33.5 µM [inhibitor, single point].

Question: Which Potency does the source give for `CCCCCCC1C(=O)O[C@H](C)[C@H](NC(=O)c2cccc(NC=O)c2O)C(=O)O[C@@H](C)[C@@H]1OC(=O)CC(C)C` (some centres undefined) here?
Answer: Its Potency is active: 0.0115 µM.

Question: With `COc1cccc(NCC(F)Cn2c3ccc(Br)cc3c3cc(Br)ccc32)c1` (centres undefined) as the compound, how does the Potency read?
Answer: Its Potency is inconclusive: 29 µM [inhibitor, single point].

Question: With `Nc1ccc([N+](=O)[O-])cc1` as the compound, how does the Potency read?
Answer: The Potency was inconclusive: 21.7 µM [inhibitor, partial curve, poor fit].

Question: For `COc1ccc2c(c1OC)CN1CCc3cc4c(cc3C1C2)OCO4` (centres undefined), which Potency is on record?
Answer: Its Potency is inconclusive: 13.3 µM [inhibitor, partial curve] and inconclusive: 13 µM [inhibitor, partial curve].

Question: With `CCN(CC)C(=O)N[C@@H]1C=C2c3cccc4[nH]cc(c34)C[C@@H]2N(C)C1` as the compound, how does the Potency read?
Answer: Its Potency is “inactive”.

Question: With `Cc1ncc(OC[C@@]2(c3cccc(F)c3)C[C@H]2C(=O)Nc2ccc(F)cn2)c(C)n1` as the compound, how does the Potency read?
Answer: The Potency was “inactive”.

Question: Which Potency does the source give for `CC(=O)OC[C@]12[C@H](OC(C)=O)C(=O)[C@@H]3[C@@H](O)[C@@]14O[C@@]3(C)COC(=O)c1cccnc1[C@@H](C)[C@H](C)C(=O)O[C@@H]([C@H](OC(C)=O)[C@@H]2OC(C)=O)[C@]4(C)O` here?
Answer: The Potency was inconclusive: 8.58 µM [inhibitor, single point].

Question: For `NNc1ccccc1`, which Potency is on record?
Answer: Its Potency is inconclusive: 33.5 µM [inhibitor, single point].

Question: For `C[C@H]1CN(CC[C@H](O)C2CCCCC2)CC[C@@]1(C)c1cccc(O)c1`, which Potency is on record?
Answer: Its Potency is inconclusive: 29 µM [inhibitor, single point].

Question: With `O=C(N/N=C/c1ccc([N+](=O)[O-])o1)c1cc([N+](=O)[O-])cc([N+](=O)[O-])c1O` as the compound, how does the Potency read?
Answer: Its Potency is inconclusive: 26.6 µM [inhibitor, single point].

Question: With `C[C@]12CCC(=O)C=C1CC[C@@H]1[C@H]3CC[C@](C)(O)[C@@]3(C)CC[C@@H]12` as the compound, how does the Potency read?
Answer: Its Potency is active: 34.7 µM.

Question: With `C=CC/C=C\C/C=C\CCCCCCCc1cc(O)cc(O)c1` as the compound, how does the Potency read?
Answer: Its Potency is inconclusive: 5.05 µM [inhibitor, partial curve].

Question: Which Potency does the source give for `CC(Cc1ccc(O)cc1)NCC(O)c1cc(O)cc(O)c1` (centres undefined) here?
Answer: The Potency was inconclusive: 29.9 µM [inhibitor, single point].

Question: Which Potency does the source give for `Cc1sc2c(c1C)C(c1ccc(Cl)cc1)=NC(CC(=O)OC(C)(C)C)c1nnc(C)n1-2` (centres undefined) here?
Answer: The Potency was active: 0.183 µM.

Question: Which Potency does the source give for `CN1CCC(N(Cc2ccccc2)c2ccccc2)CC1` here?
Answer: Its Potency is inconclusive: 26.6 µM [inhibitor, single point].

Question: With `CC[C@H]1C[C@@H]2C[C@H]3c4[nH]c5ccc(OC)cc5c4CCN(C2)[C@@H]13` as the compound, how does the Potency read?
Answer: The Potency was inconclusive: 37.8 µM [inhibitor, single point].
